The record followed here is article PMC4336329 (PLoS ONE, 2015).

The campaign covered roughly 310,000 compounds. About 2,200 (0.71%) showed an effect of 50% or more. The effect is printed as a negative number. Some of the results follow.

This assay deals with human ether-à-go-go-related gene (hERG) potassium channel (human, UniProt Q12809). The experiment in a line: primary screen, population patch clamp on CHO cells stably expressing hERG.
Sequence of human ether-à-go-go-related gene (hERG) potassium channel (Q12809 whole entry, looked up): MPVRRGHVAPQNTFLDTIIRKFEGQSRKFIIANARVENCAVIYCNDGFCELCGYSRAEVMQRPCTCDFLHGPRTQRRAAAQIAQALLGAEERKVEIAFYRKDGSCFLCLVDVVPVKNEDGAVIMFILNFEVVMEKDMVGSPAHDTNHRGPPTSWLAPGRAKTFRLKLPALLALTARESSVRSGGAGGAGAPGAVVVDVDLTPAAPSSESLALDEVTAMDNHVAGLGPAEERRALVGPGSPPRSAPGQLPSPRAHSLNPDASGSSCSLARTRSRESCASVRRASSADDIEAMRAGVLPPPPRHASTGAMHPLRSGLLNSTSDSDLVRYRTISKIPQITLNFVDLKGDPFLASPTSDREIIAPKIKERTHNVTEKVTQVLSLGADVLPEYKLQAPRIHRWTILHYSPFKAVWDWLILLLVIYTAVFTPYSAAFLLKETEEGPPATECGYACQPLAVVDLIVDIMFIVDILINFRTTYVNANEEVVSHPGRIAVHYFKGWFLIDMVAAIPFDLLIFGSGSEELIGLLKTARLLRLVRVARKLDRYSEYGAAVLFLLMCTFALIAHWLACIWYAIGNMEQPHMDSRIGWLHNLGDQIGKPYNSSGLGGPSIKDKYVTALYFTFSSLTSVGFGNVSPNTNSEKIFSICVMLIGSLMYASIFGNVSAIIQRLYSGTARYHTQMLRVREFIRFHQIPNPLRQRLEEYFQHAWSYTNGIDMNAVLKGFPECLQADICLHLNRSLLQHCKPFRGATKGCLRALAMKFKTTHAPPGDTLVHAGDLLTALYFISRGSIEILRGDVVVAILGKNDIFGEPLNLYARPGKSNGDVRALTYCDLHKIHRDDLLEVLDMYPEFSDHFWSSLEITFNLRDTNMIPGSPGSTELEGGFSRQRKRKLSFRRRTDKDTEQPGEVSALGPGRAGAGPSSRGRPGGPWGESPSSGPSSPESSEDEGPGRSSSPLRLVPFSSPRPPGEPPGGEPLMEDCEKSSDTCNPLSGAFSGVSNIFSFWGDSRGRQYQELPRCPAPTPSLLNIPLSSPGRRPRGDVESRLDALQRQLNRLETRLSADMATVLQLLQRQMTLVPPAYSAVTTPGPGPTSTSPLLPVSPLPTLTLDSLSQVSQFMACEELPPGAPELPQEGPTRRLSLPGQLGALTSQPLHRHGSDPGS
Take `COc1ccc(/C=N\NC(=O)COc2ccccc2)c(C(=O)O)c1OC`: the “hERG current change (%, negative = inhibition) at 1uM” value amounted to 13.2%. As for `C=CCNC(=O)c1onc(CSc2ccc(F)cc2)c1C(=O)O`, the “hERG current change (%, negative = inhibition) at 1uM” value came to 10.3%. For the molecule `Cc1ccc(S(=O)(=O)N2CCC(C(=O)Nc3nnc(C)s3)CC2)cc1`, the “hERG current change (%, negative = inhibition) at 1uM” value came to 9.1%. Turning to `Cc1cccc(-c2ocnc2C(=O)Nc2ccccc2C(=O)N2CCCC2)c1`, the “hERG current change (%, negative = inhibition) at 1uM” value is on record as 10.2%. `Cn1c(SCC(=O)N2CCN(c3ccccc3)CC2)nnc1-c1ccco1`: the “hERG current change (%, negative = inhibition) at 1uM” value was 4.22%. On to `COc1cc(NC(=O)CCn2c(=O)[nH]c3ccsc3c2=O)cc(OC)c1`, for which the “hERG current change (%, negative = inhibition) at 1uM” value is recorded as 0.0578%. In the case of `Cc1ccc(F)cc1NC(=O)CCOc1ccccc1`, the “hERG current change (%, negative = inhibition) at 1uM” value came out at 6.03%.

`Cc1ccc(NC(=O)C2CCC(CNC(=O)[C@@H]3Cc4ccccc4CN3)CC2)c(C)c1` (stereo partly shown): the “hERG current change (%, negative = inhibition) at 1uM” value was found to be 18.2%. With `O=C(Nc1cc(Cl)cc(Cl)c1)C(NCCO)c1ccccc1` (stereo not shown), the “hERG current change (%, negative = inhibition) at 1uM” value was -0.358%. On to `COc1ccc([N+](=O)[O-])cc1N(CC(O)CN1C(=O)NC(C)(C)C1=O)S(=O)(=O)c1ccccc1` (stereo not shown), for which the “hERG current change (%, negative = inhibition) at 1uM” value was found to be 13.7%. With `Cc1cc(SCC(=O)NCC(c2cccs2)N2CCOCC2)c(C)cc1Br` (stereo not shown) the figure was 3.5%. On to `COc1ccccc1CNC(=O)C1CCN(S(=O)(=O)c2ccc3c(c2)OCCCO3)CC1`, for which the “hERG current change (%, negative = inhibition) at 1uM” value is -1.02%.

Turning to `O=C(Nc1ccc2c(c1)OCO2)c1noc2c1CCCC2`, the “hERG current change (%, negative = inhibition) at 1uM” value is on record as 9.29%.

As for `N#C/C(=C\c1cn(CCOc2ccccc2F)c2ccccc12)C(=O)NCc1cccs1`, the “hERG current change (%, negative = inhibition) at 1uM” value came out at 6.48%. In the case of `CS(=O)(=O)NCc1ccccc1Br`, the “hERG current change (%, negative = inhibition) at 1uM” value stood at 14.5%. For the molecule `CCn1c(SCC(=O)N2CCC(C(N)=O)(N3CCCCC3)CC2)nnc1-c1ccccc1`, the “hERG current change (%, negative = inhibition) at 1uM” value turned out to be 14.7%.

Turning to `CC1=N/C(=C\c2ccc([N+](=O)[O-])cc2)C(=O)N1c1ccc(Cl)cc1`, the “hERG current change (%, negative = inhibition) at 1uM” value came out at 7.82%. Take `O=C(CCS(=O)(=O)c1ccccc1)Nc1ccc(-c2nc3ccccc3s2)cc1`: the “hERG current change (%, negative = inhibition) at 1uM” value is given as 4.39%.

Consider `COC(=O)[C@@H]1C[C@H]2CC[C@H](O)C[C@H]2N1Cc1ccc(C(C)(C)C)cc1`, for which the “hERG current change (%, negative = inhibition) at 1uM” value was 13.4%.

As for `OC(COCc1ccco1)CN1CCN(C(c2ccccc2)c2ccccc2)CC1` (stereo not shown), the “hERG current change (%, negative = inhibition) at 1uM” value is listed as -79.1%. On to `OCCC1CN(Cc2c(F)cccc2Cl)CCN1C1CCCCC1` (stereo not shown), for which the “hERG current change (%, negative = inhibition) at 1uM” value is listed as 0.337%. As to `Cc1ccc(O)c(NC(=O)c2cc(-c3ccc(F)cc3)on2)c1`, the “hERG current change (%, negative = inhibition) at 1uM” value came out at 5.26%.

For `O=C(O)CCCCCNC(=O)CSc1nnc(-c2ccco2)n1-c1ccccc1`, the “hERG current change (%, negative = inhibition) at 1uM” value is on record as 17.7%. In the case of `CNC(=O)[C@H]1O[C@@H](n2cnc3c(NCc4cccc(I)c4)ncnc32)[C@H](O)[C@@H]1O`, the “hERG current change (%, negative = inhibition) at 1uM” value is listed as 5.45%. With `CC(C)NC(=O)Nc1n[nH]c(Nc2ccc(Cl)cc2)n1`, the “hERG current change (%, negative = inhibition) at 1uM” value is 12.4%.

Turning to `CCc1cccc(C)c1NC(=O)CO/N=C(\C)c1cc2ccccc2o1`, the “hERG current change (%, negative = inhibition) at 1uM” value is 5.55%. Take `COc1ccc(-c2nnc3ccc(SCC(=O)NCc4ccco4)nn23)cc1OC`: the “hERG current change (%, negative = inhibition) at 1uM” value is on record as -13.8%. With `CCCCCCN1C=CC(=C/C=C(\C#N)C(=O)OCC)C=C1` the figure was 8.93%; with `Cn1cc(C(=O)N/N=C/c2ccc(Br)c([N+](=O)[O-])c2)c2ccccc21`, 9.53%. Regarding `O=C(Cc1ccccc1)Nc1cccc(N2C(=O)C=CC2=O)c1`, the “hERG current change (%, negative = inhibition) at 1uM” value was 7.05%. Consider `Cc1cc(-c2ccccc2)[nH]c(=O)c1S(=O)(=O)c1ccccc1`, for which the “hERG current change (%, negative = inhibition) at 1uM” value turned out to be 6.8%. Next, `CN1CCN(CC(O)COc2ccc(C(=O)O)cc2)CC1` (stereo not shown): 15.9%; `CCCNC(=S)N1CCN(c2nc(-c3cccc(OC)c3)cs2)CC1`: 10.4%; `O=C(c1ccccc1)c1nccc2ccccc12`: 4.76%. Regarding `COc1cc(OC)cc(OCC(O)Cn2ccnc2)c1` (stereo not shown), the “hERG current change (%, negative = inhibition) at 1uM” value came to 13.8%. As for `O=C(O)CCc1nn2cc(-c3ccccc3)nc2[nH]c1=O`, the “hERG current change (%, negative = inhibition) at 1uM” value came to 13.1%. Next, `Cn1c(SCC(=O)O)nnc1-c1cccc(NC(=O)c2cccc3ccccc23)c1`: 5.75%. With `O=C(c1cc(-c2cccs2)on1)N1CCN(c2ccc(F)cc2)CC1`, the “hERG current change (%, negative = inhibition) at 1uM” value is given as 1.64%. With `COc1ccc(CC(=O)N2N=C(C)CC2(O)c2cccnc2)cc1` (stereo not shown) the figure was 13.2%; with `Cc1ccc(Cl)cc1N(CC(=O)Nc1cccc(N(C)S(C)(=O)=O)c1)S(C)(=O)=O`, -2.06%.

As for `COc1ccc(CNC(=O)CCc2c(C)nc3ncnn3c2C)cc1`, the “hERG current change (%, negative = inhibition) at 1uM” value came to 3.51%.

As to `O=c1cc(N2CCc3ccccc32)[nH]c(=O)n1-c1ccc(Br)cc1`, the “hERG current change (%, negative = inhibition) at 1uM” value was determined as 11.3%. Take `CCCC[C@@H]1CN=C(N)N1CCCC`: the “hERG current change (%, negative = inhibition) at 1uM” value was 17.5%.
